Results from the supplement of paper PMC7826260.
The list shows a part of the results. Cleavage of a single-stranded DNA pool by Rep nickase domains was read by sequencing for 1 h at 37 °C with 3 µM enzyme; only the middle of the 90-letter strands is printed. Uncut reads are compared with the no-enzyme pool on a log2 scale; uncut sequences lie near 0, cut ones below; no hit call is given. Because reads are shares of a total, they shift together; values above 0 arise when much of the pool is cut.

Columns and labels:
Experiment in all cases: uncleaved DNA left, log2 of reads against the no-enzyme library (log2 ratio); higher = less cleavage (more negative = more Rep cleavage of the k-mer); sequences stand for … in CTCGTCCG…ACCGGAGA
[1] = tested on: T1, Rep nickase domain of Muscovy duck circovirus
T1 sequence (residues 1-111 of Rep, tag left off): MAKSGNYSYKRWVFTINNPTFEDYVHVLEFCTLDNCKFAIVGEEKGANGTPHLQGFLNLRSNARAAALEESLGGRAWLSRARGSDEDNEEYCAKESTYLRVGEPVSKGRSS
Description: (§1)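 A pool of 90-nt single-stranded DNAs with seven random bases just before the constant AC of the nick site (name = the seven bases) was cut by 3 µM recombinant His6-SUMO-tagged Rep nickase domain (300 nM DNA, 50 mM HEPES pH 8.0, 50 mM NaCl, 1 mM MnCl2, 1 h, 37 °C, three replicates). Uncut DNA was amplified and sequenced.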

[2] = tested on: T2, Rep nickase domain of banana bunchy top virus
T2 sequence (residues 1-94 of Rep, tag left off): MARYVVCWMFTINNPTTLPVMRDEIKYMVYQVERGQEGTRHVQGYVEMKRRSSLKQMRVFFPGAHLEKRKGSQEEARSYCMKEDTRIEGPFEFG
Description: as §1

[3] = tested on: T3, Rep nickase domain of cabbage leaf curl virus
T3 sequence (residues 1-116 of Rep, tag left off): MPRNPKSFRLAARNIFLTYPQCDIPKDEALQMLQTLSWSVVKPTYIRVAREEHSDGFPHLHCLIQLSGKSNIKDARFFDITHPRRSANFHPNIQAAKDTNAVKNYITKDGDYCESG
Description: as §1

[4] = tested on: T4, Rep nickase domain of chickpea chlorotic dwarf virus
T4 sequence (residues 1-124 of Rep, tag left off): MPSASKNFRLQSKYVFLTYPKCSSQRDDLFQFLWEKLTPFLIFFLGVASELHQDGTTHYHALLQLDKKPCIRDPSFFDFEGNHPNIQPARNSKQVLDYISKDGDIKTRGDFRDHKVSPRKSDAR
Description: as §1

[5] = tested on: T5, Rep nickase domain of faba bean necrotic yellows virus
T5 sequence (residues 1-98 of Rep, tag left off): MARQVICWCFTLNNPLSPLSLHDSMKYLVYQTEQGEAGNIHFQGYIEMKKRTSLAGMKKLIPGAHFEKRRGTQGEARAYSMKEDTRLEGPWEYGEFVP
Description: as §1

[6] = tested on: T6, Rep nickase domain of maize striate mosaic virus
T6 sequence (residues 1-117 of Rep, tag left off): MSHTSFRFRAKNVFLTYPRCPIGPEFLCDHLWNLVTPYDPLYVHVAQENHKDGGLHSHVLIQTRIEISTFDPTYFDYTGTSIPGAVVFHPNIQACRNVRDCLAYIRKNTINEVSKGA
Description: as §1

[7] = tested on: T7, Rep nickase domain of porcine circovirus 2
T7 sequence (residues 2-116 of Rep, tag left off): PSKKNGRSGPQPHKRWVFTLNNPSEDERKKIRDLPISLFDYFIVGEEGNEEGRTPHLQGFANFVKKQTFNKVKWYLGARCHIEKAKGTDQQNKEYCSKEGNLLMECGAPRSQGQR
Description: as §1

[8] = tested on: T8, Rep nickase domain of tomato golden mosaic virus
T8 sequence (residues 1-124 of Rep, tag left off): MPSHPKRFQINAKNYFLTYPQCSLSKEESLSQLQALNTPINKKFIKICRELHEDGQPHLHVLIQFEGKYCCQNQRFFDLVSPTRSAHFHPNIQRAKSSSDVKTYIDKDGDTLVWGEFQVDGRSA
Description: as §1

[9] = tested on: T9, Rep nickase domain of tomato yellow leaf curl virus
T9 sequence (residues 1-136 of Rep, tag left off): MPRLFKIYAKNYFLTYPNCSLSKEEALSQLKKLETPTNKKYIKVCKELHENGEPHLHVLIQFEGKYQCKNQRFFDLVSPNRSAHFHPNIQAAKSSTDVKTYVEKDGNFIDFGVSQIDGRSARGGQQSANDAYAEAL
Description: as §1

[10] = tested on: T10, Rep nickase domain of wheat dwarf virus
T10 sequence (residues 1-137 of Rep, tag left off): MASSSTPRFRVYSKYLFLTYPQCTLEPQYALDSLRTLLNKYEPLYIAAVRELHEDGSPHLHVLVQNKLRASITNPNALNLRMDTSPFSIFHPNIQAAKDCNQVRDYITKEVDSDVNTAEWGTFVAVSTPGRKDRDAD
Description: as §1

Row | Sequence | uncleaved DNA left (log2) [1] | uncleaved DNA left (log2) [2] | uncleaved DNA left (log2) [3] | uncleaved DNA left (log2) [4] | uncleaved DNA left (log2) [5] | uncleaved DNA left (log2) [6] | uncleaved DNA left (log2) [7] | uncleaved DNA left (log2) [8] | uncleaved DNA left (log2) [9] | uncleaved DNA left (log2) [10]
1 | CTCTCTT | -2.11 | -0.222 | -0.0653 | -2.3 | -0.00807 | -0.453 | -2.91 | -0.128 | 0.0118 | 0.00386
2 | GCTTCTT | -0.999 | -0.0485 | 0.0979 | -1.01 | -0.0458 | 0.4 | -2.43 | -0.0447 | 0.094 | 0.104
3 | CCTTTCT | -1.22 | -0.00659 | -0.251 | -2.53 | -0.026 | -0.933 | -2.7 | -0.107 | 0.0183 | 0.0416
4 | ATTCCAA | -0.161 | -0.103 | -0.0901 | -0.293 | -0.116 | -0.611 | -0.728 | -0.0899 | -0.0327 | 0.0535
5 | TTAGGTT | 0.116 | 0.00734 | 0.343 | 0.501 | -0.0092 | 1.72 | -0.0095 | 0.124 | -0.00302 | 0.0218
6 | GTTAGCC | 0.132 | 0.0127 | 0.246 | 0.731 | 0.104 | 0.778 | 0.139 | 0.0497 | 0.0779 | 0.0714
7 | GCGCACT | 0.146 | 0.0495 | 0.112 | 0.417 | 0.078 | 1.26 | 0.12 | -0.122 | 0.0502 | 0.147
8 | GGATTGA | 0.0971 | 0.106 | 0.503 | 1.3 | 0.0587 | 1.46 | 0.207 | 0.0799 | 0.0884 | 0.227
9 | ATCTAGA | 0.0492 | 0.0243 | -0.185 | -0.287 | -0.011 | -0.996 | 0.119 | 0.0689 | -0.0664 | 0.0297
10 | GGCCGTG | 0.144 | 0.166 | 0.548 | 1.08 | 0.0731 | 1.35 | 0.151 | 0.187 | 0.213 | 0.0998
11 | CAAGGGC | 0.00137 | 0.0232 | 0.0327 | 0.26 | -0.0666 | -0.379 | -0.0527 | 0.0278 | -0.0612 | -0.0779
12 | GAGCCTT | -0.0784 | -0.0372 | 0.526 | 0.475 | 0.0205 | 1.65 | -1.7 | -0.0449 | 0.0951 | 0.244
13 | TTATTGC | 0.0733 | 0.0841 | -0.578 | 0.582 | 0.192 | -0.733 | 0.219 | -0.0222 | 0.191 | 0.0545
14 | GCGACAT | 0.0172 | 0.0547 | 0.802 | 2 | 0.0263 | 2.23 | 0.146 | -0.0629 | 0.102 | 0.181
15 | CAACAGT | 0.0783 | -0.0422 | -0.625 | -2.62 | -0.0709 | -0.909 | -0.0244 | -0.0595 | 0.0677 | -0.0154
16 | GCCCGCC | 0.00777 | -0.0185 | 0.123 | 0.48 | -0.0809 | 0.25 | 0.119 | 0.0683 | -0.0906 | -0.077
17 | ACGTAAC | 0.0446 | -0.0806 | -0.383 | -1.08 | -0.126 | -0.684 | 0.0265 | 0.002 | -0.235 | -0.123
18 | CGACGAA | 0.00243 | 0.127 | 0.0429 | 0.523 | 0.0463 | 1.28 | -0.0675 | -0.0244 | -0.117 | 0.00584
19 | CATTCTC | -1.92 | -2.55 | -0.102 | -0.444 | -0.0444 | -0.861 | -2.01 | -0.134 | 0.0181 | -0.0622
20 | TTCTTAC | -1.23 | -0.175 | -0.0552 | -2.11 | -0.0977 | -0.304 | -0.997 | -0.048 | -0.124 | -0.202
21 | ATCAACG | -0.0468 | -0.0445 | -0.945 | -0.34 | -0.036 | -1.13 | 0.12 | -0.00229 | -0.201 | -0.0366
22 | AAATTGA | 0.111 | 0.078 | -0.437 | -0.685 | 0.0934 | -1.19 | 0.0655 | -0.00259 | 0.0638 | 0.0672
23 | TCCTCCG | -0.0552 | -0.1 | -0.723 | -0.475 | -0.131 | -1.17 | 0.0826 | -0.16 | -0.139 | -0.12
24 | ATTGGAC | -0.0812 | -0.0477 | 0.319 | 1.1 | -0.11 | 1.16 | 0.0928 | -0.0408 | -0.0638 | 0.0569
25 | TCAACGG | 0.139 | 0.0958 | 0.659 | 1.58 | 0.0938 | 2.07 | 0.203 | 0.171 | -0.0757 | 0.148
26 | TCTTATA | -0.00517 | 0.0777 | -0.0614 | -1.58 | 0.0916 | -0.256 | -0.229 | 0.0448 | -0.0377 | 0.0281
27 | CTTTAAG | -0.0236 | -0.0871 | -0.807 | -0.372 | -0.0659 | -1.26 | 0.0182 | -0.243 | -0.00782 | -0.21
28 | CTCTCTC | -0.118 | -0.0633 | -0.0184 | -0.242 | 0.0215 | -0.432 | -0.07 | -0.106 | -0.0848 | -0.0105
29 | TTTCCCT | -0.734 | -0.0578 | -0.102 | -2.24 | -0.102 | -0.464 | -2.76 | -0.241 | -0.0169 | -0.0667
30 | GTTGACG | 0.0191 | 0.0122 | -0.524 | -0.213 | -0.0247 | -0.601 | 0.18 | 0.156 | 0.124 | -0.0391
